According to PubChem BioAssay AID504339 (National Center for Advancing Translational Sciences (NCATS), 2011):
In all, about 390,000 compounds went through this assay and about 17,000 (4.4%) were called active. Inconclusive means that the source gave no clear call. Such entries were picked first, then a sample of the others. Calls follow the shape of the dose curve; as a rule, active = well fitted inhibition curve with a large enough effect; inconclusive = small, poorly fitted or top-dose-only effect; inactive = no such curve, though single readings can be large or run the other way. Potencies of inconclusive entries are doubtful fits and often do not repeat.

target: Lysine-specific demethylase 4A (Homo sapiens) (UniProt O75164); assay: qHTS Assay for Inhibitors of JMJD2A-Tudor Domain; settings: AlphaScreen JMJD2A-Tudor / H3K4me3 peptide binding; series mostly up to 114 µM; also: nearly all actives have a fitted effect of over 50% in size
Potency is read from the fitted curve at half-maximal effect; tags tell the direction and shape of the fitted curve.

UniProt O75164, sequence (O75164 whole entry, looked up, the tested form may be a part): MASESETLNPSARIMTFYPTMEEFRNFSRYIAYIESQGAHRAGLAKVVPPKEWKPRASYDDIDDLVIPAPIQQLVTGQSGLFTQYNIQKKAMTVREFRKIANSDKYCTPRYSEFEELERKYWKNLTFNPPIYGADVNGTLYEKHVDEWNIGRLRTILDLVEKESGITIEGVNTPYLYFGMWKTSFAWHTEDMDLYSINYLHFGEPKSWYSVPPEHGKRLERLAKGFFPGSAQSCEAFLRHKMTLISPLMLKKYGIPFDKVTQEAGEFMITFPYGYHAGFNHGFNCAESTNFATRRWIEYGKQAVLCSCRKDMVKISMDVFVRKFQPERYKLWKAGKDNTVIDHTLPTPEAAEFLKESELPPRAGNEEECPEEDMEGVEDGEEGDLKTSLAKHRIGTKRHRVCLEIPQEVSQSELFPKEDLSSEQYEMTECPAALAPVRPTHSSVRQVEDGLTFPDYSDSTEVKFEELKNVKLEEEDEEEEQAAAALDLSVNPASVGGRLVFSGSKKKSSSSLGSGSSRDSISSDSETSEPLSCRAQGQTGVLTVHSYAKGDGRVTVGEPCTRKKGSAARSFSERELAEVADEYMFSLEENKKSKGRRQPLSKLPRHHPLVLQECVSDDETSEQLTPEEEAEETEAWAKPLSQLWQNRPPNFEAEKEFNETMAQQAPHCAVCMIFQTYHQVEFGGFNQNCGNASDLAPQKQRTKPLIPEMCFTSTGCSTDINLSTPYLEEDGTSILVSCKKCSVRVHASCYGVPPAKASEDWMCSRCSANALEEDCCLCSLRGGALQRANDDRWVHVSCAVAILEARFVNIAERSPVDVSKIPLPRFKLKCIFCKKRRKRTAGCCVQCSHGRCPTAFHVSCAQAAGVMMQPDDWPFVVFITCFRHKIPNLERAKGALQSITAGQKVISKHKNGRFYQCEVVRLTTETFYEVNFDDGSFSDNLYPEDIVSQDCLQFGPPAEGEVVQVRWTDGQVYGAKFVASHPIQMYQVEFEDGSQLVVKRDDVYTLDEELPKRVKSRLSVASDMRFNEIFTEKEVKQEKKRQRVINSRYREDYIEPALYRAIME

Compound | Potency
CC1CCN(CCCCOc2cccc(C(C)C)c2)CC1 | active: 56.2 µM
C=CCn1cc(/C=N/NC(=O)COc2cccc3cccnc23)c2ccccc21 | inconclusive: 50.1 µM [inhibitor, partial curve]
CCc1ccccc1NC(=O)c1cc(-c2ccc(OC)cc2)on1 | inactive
COc1cccc(-c2cc(C(=O)NC3CCCCC3)no2)c1 | inactive
Cc1cc(C=O)c(C)n1-c1ccc(NC2CCCCC2)c([N+](=O)[O-])c1 | active: 17.8 µM
Cc1ccc2sc(N(CCCN(C)C)C(=O)c3ccco3)nc2c1C | inconclusive: 50.1 µM [inhibitor, partial curve]
CCOC(=O)c1c(NC(=O)COC(=O)/C=C/c2ccco2)sc2c1CC(C)(C)NC2(C)C | inconclusive: 56.2 µM [inhibitor, partial curve]
CC(C)(C)C(C(=O)n1cccc1C#N)c1ccccc1 (stereo not drawn) | inactive
COc1ccc(OC)c2c(C)cc(N3CCN(C(=O)c4ccc(C)cc4)CC3)nc12 | inconclusive: 56.2 µM [inhibitor, partial curve]
COc1ccc(NC(=O)c2cc(-c3cccs3)on2)cc1 | inactive
N=C1C=CC(=C(c2ccc(N)cc2)c2ccc(N)cc2)C=C1 | active: 7.08 µM
CCN(CC)C(=O)COC(=O)c1cc(-c2ccco2)nc2ccccc12 | active: 56.2 µM
CN(Cc1ccncc1)C1CC(=O)N(c2ccc(Cl)cc2)C1=O (stereo not drawn) | inactive
COc1cccc(C(=O)N(Cc2ccc(N(C)C)cc2)Cc2ccco2)c1 | active: 39.8 µM
COc1ccc(-c2cc(-c3n[nH]c(=S)n3-c3cccc4ccccc34)[nH]n2)cc1 | inconclusive: 50.1 µM [inhibitor, partial curve]
COc1cc(/C=N/N2CCN(C3c4ccccc4-c4ccccc43)CC2)cc(OC)c1O | inconclusive: 31.6 µM [inhibitor, single point]
Clc1ccccc1-c1nc(/C=N/N2CCOCC2)c2ccccn12 | inconclusive: 15.8 µM [inhibitor, full curve]
CCNC(=O)c1ccccc1SCC(=O)Nc1ccc(F)cc1 | active: 12.6 µM
O=C(OCc1ccccc1F)c1ccc2c(c1)-c1ccccc1C2=O | inconclusive: 12.6 µM [inhibitor, full curve, poor fit]
CCc1nnc(NC(=O)c2ccc(S(=O)(=O)N(CCOC)CCOC)cc2)o1 | active: 44.7 µM
CCCC(CCC)c1nc2ccncc2[nH]1 | inconclusive: 28.2 µM [inhibitor, single point]
Nc1nc(-c2ccc(Br)cc2)cs1 | active: 79.4 µM
C=C(C)COc1ccc(-c2n[nH]c(C)c2-c2ccccc2OC)c(O)c1 | inconclusive: 79.4 µM [inhibitor, partial curve]
COC(=O)c1cccc(Nc2c(-c3ccc(SC)cc3)nc3nc[nH]n23)c1 | inconclusive: 50.1 µM [inhibitor, partial curve]
C[C@@H]1CN([C@@H](C)CO)C(=O)c2cccc(NC(=O)C3CCCCC3)c2O[C@@H]1CN(C)Cc1ccc(Cl)c(Cl)c1 | inconclusive: 63.1 µM [inhibitor, partial curve, poor fit]
CCN(C(C)=O)c1cnc(C=NNC(N)=S)c2ccccc12 | active: 56.2 µM

Compound | Potency
CN(C)c1nc(-c2cn(CCC#N)c3ccccc23)cs1 | active: 50.1 µM
COc1cc(/C=N/Nc2cccc(C)c2)cc(Br)c1O | active: 50.1 µM
Cc1ccc(-c2nnn(CC(=O)N(c3ccccc3)C(C(=O)NCC3CCCO3)c3cccs3)n2)o1 (stereo not drawn) | inconclusive: 79.4 µM [inhibitor, partial curve]
C/C(=N/NC(=O)c1cc2ccccc2cc1O)C1C(=O)c2ccccc2C1=O | active: 15.8 µM
CCOc1ccc(Nc2nc(N)c([N+](=O)[O-])c(N3CCN(CC)CC3)n2)cc1 | inconclusive: 70.8 µM [inhibitor, single point]
CNS(=O)(=O)c1ccc(NC(=O)C2CC(=O)N(c3ccc(Cl)cc3)C2)cc1 (stereo not drawn) | active: 56.2 µM
O=C(c1ccccc1)c1c(O)cc(-c2ccccc2)oc1=O | inconclusive: 35.5 µM [inhibitor, single point]
O=C(Nc1ccc2nc(SCCOc3ccccc3)sc2c1)c1ccco1 | inactive
COc1cc(/C=C2\C(=O)N(c3ccc(NC(C)=O)cc3)N=C2c2ccccc2)ccc1O | active: 39.8 µM
CCOc1ccc(NC(=O)NC(C)c2c(-n3cccc3)sc3c2CCN(CC)C3)cc1 (stereo not drawn) | inconclusive: 50.1 µM [inhibitor, partial curve]
COc1cccc(CCNC(=O)c2ccc(Cn3c(SCc4ccccc4)nc4cccnc43)cc2)c1 | inactive
CCn1cc(C(=O)OCC(=O)c2cc(C)n(-c3ccccc3F)c2C)c(=O)c2ccc(C)nc21 | active: 39.8 µM
COc1ccc2nc(SCC(=O)NC(C)(C)C)[nH]c2c1 | inactive
COc1cc(CN2CC(=O)N(c3cc(Cl)ccc3C)C2=S)cc(OC)c1OC | inconclusive: 14.1 µM [inhibitor, full curve, poor fit]
O=C(CC1(O)C(=O)N(CCc2ccccc2)c2ccccc21)c1ccco1 (stereo not drawn) | inactive
COC(=O)c1cn(C(=O)/C=C/c2ccc(OC)c(OC)c2)c2ccccc12 | inactive
CC(C)(C)c1csc(N/N=C/c2cccnc2)n1 | inconclusive: 56.2 µM [inhibitor, partial curve]
COc1ccc(-n2c(=O)c3c4c(sc3n(CC(=O)Nc3cc(C)[nH]n3)c2=O)CCC4)c(OC)c1 | active: 89.1 µM
CN(C)/C=C/c1c([N+](=O)[O-])c2ccc(O)cc2n1-c1ccccc1 | inconclusive: 50.1 µM [inhibitor, partial curve]
Cc1nn2c(=O)cc(COC(=O)c3ccc(NC(=O)CCc4ccccc4)cc3)nc2s1 | inconclusive: 100 µM [inhibitor, single point]
c1csc(C2Nc3cccc4cccc(c34)N2)c1 | inactive
Cc1ccn2c(/C=N/OCc3cccc(F)c3)c(-c3ccc(Cl)cc3)nc2c1 | inconclusive: 4.47 µM [inhibitor, single point]
COc1ccc(CCNC(=O)C(=O)NCC(c2ccco2)S(=O)(=O)c2cccs2)cc1 (stereo not drawn) | inactive
O=C(O)c1ccccc1NS(=O)(=O)c1ccc2ccccc2c1 | inactive
O=C(CCC1CCN(C(=O)c2cncs2)CC1)Nc1ccccc1 | inactive
CCCC(=O)Oc1c(Sc2ccc(C)cc2)c(C)nn1-c1ccccc1 | inactive

Compound | Potency
CCn1cc(Cl)c(C(=O)Nc2ccc3c(c2)OCCO3)n1 | inactive
O=C(CN1C(=O)/C(=C\c2ccccc2Cl)Sc2ccccc21)NCCCN1CCOCC1 | inconclusive: 89.1 µM [inhibitor, partial curve]
Cc1ccccc1S(=O)(=O)NCC1CCCO1 (stereo not drawn) | inactive
CCOC(=O)Cc1csc(SCC(=O)Nc2cc(C)ccc2OC)n1 | inconclusive: 20 µM [inhibitor, single point]
CC(C)(C)c1sc(N)nc1-c1ccccc1 | inactive
Clc1cccc(Cl)c1NC1=NCCC1 | inactive
CN(C)c1ccc(C(=O)Nc2sc(Nc3ccccc3)nc2C(N)=O)cc1 | inactive
CC(Sc1nnc(-c2ccco2)n1C)C(=O)Nc1nccs1 (stereo not drawn) | active: 31.6 µM
O=C(Nc1ccc(C(=O)N2CCOCC2)cc1)C1CCCC1 | inactive
COc1ccc(S(=O)(=O)NCc2ccc(C(=O)N3CCc4ccccc4C3)cc2)cc1 | inactive
CC(=O)c1cccc(NC(=O)c2nccnc2C(=O)O)c1 | active: 20 µM
COC(=O)c1ccc(-n2c(C)cc(C(=O)CSc3ccc(NC(C)=O)cc3)c2C)cc1 | inconclusive: 28.2 µM [inhibitor, single point]
CCCc1cc(=O)[nH]c(SCC(=O)Nc2sc3c(c2C#N)CCC(C)C3)n1 (stereo not drawn) | inconclusive: 44.7 µM [inhibitor, partial curve]
Cc1nn(-c2ccc(Cl)cc2)c2[nH]c(CCl)cc(=O)c12 | active: 79.4 µM
CCn1c2ccccc2c2cc(NC(=O)CN(C)CC(=O)Nc3ccc(N4CCOCC4)cc3)ccc21 | inconclusive: 39.8 µM [inhibitor, partial curve]
Cc1cc(C)c(NC(=O)CN2CCN(C)CC2)c(C)c1 | inactive
O=C(CN1C(=O)NC(CCc2ccccc2)C1=O)Nc1ccccc1C(F)(F)F (stereo not drawn) | inactive
CC(C)(C)N=C1NN=C(c2ccc(Cl)cc2)CS1 | inconclusive: 79.4 µM [inhibitor, partial curve]
CC(=O)Nc1ccc2nc(SCCOc3ccc(C)cc3)sc2c1 | inconclusive: 89.1 µM [inhibitor, single point]
O=C(NC1CCCC(C(F)(F)F)C1)c1ccc([N+](=O)[O-])o1 (stereo not drawn) | inactive
Cn1cccc1Cc1nnc(SCC(=O)Nc2cccc(Cl)c2)n1-c1ccc(F)cc1 | inconclusive: 22.4 µM [inhibitor, full curve]
CC1CCc2c(N3CCC(O)CC3)c(F)cc3c(=O)c(C(=O)O)cn1c23 (stereo not drawn) | inconclusive: 89.1 µM [inhibitor, single point]
COc1ccc(NC(=O)c2sc3nc(C)c(C(=O)Nc4ccc(C)cc4C)c(-c4sccc4C)c3c2N)cc1 | inactive
CCc1ccc(NC(=O)CSc2nnc(Cc3cccn3C)n2-c2ccc(F)cc2)cc1 | inconclusive: 31.6 µM [inhibitor, full curve]
NC(=O)/C(=C/c1ccco1)C(N)=S | inconclusive: 89.1 µM [inhibitor, single point]
Brc1ccc(OCc2nc(-c3ccccn3)n[nH]2)cc1 | active: 39.8 µM
